Data on 108 compounds can be found in PubChem BioAssay AID488969 (Vanderbilt High Throughput Screening Facility, 2010).

Over roughly 110,000 compounds, “z-score” has its median near -0.1; the highest 2% begin near 2. The list shows a part of the results. The source made the active and inactive calls.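 Rule for the calls: active = z-score in the third read window above 3 or below -3; inactive = the rest.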

For the experiment, the target named is Metabotropic glutamate receptor 8 (Rattus norvegicus) (UniProt P70579). Put plainly: rat mGluR8 modulators via GIRK flux, primary screen, cell-based, thallium flux, HTS (AID 488969). To be noted: HEK293 rat mGluR8, GIRK (G protein-gated inwardly rectifying potassium channel) thallium flux, FluoZin2; at 10 µM; stronger effect = higher value; submaximal glutamate (EC20) added with thallium.
Sequence of UniProt P70579 (P70579 whole entry, looked up): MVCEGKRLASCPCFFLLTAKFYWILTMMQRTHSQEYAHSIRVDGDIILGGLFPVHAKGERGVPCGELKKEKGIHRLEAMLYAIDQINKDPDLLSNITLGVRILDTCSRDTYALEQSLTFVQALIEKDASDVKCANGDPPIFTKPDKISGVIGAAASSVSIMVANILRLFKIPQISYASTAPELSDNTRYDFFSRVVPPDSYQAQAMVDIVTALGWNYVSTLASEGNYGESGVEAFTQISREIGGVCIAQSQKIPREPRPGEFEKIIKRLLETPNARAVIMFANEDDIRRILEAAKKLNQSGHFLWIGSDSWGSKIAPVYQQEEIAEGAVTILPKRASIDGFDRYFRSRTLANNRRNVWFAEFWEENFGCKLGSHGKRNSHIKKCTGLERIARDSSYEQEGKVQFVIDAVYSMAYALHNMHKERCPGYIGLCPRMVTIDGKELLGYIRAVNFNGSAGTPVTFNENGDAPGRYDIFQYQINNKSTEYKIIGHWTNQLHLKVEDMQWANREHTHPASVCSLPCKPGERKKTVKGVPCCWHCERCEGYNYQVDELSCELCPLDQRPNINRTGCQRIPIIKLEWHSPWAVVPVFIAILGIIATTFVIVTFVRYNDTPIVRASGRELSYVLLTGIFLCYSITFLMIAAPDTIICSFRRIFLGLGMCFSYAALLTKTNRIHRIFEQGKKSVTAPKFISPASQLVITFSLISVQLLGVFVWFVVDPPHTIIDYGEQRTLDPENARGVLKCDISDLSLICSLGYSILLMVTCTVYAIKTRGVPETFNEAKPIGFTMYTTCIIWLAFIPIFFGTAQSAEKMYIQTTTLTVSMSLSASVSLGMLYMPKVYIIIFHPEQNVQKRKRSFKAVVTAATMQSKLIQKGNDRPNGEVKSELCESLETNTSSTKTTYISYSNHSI
Consider `COCCn1c(SCc2nc3cc(OC)c(OC)cc3c(=O)[nH]2)nnc1-c1ccncc1`, for which the z-score worked out at 0.216.
The same measure for `CCCCc1nnc(SCCSc2nnc(CCCC)n2N)n1N`: 0.0292; for `O=C(c1noc2c1CCc1ccccc1-2)N1CCOCC1`: -0.0455.
Consider `CC(C)(C)NC(=O)c1ccc(COCC(F)(F)F)o1`, for which the z-score was -0.00271.
On to `COc1ccccc1NC(=O)c1ccccc1NS(=O)(=O)N1CCCC1`, for which the z-score stood at 0.14.
The value for `CCCCSc1nc2c(c(C(F)(F)F)c1C#N)CCC2` was -0.216; that for `CCOc1cc(CNc2ccc3c(c2)CCC3)ccc1O` was 0.557; that for `Cc1ccc(C(=O)Nc2sc(C)c(-c3ccccc3)c2C(N)=O)cc1[N+](=O)[O-]` was -0.0229.
On to `O=C(NCCN1C(=O)S/C(=C\c2cccs2)C1=O)c1ccc(=O)[nH]c1`, for which the z-score was -0.18.
The same measure for `COc1ccc2c(Cl)c(C(=O)N/N=C/c3c(C)[nH]c4ccccc34)sc2c1`: -0.0415; for `COc1ccc(CNC(=O)c2noc3c2CCCC3)cc1`: 0.719.
With `COc1cccc(C2Nc3ccccc3C(=O)N2O)c1O` (stereo not drawn), the z-score stood at 0.356.
In turn, `CC(=O)c1ccc(N2C(=O)[C@@H]3C(CCC(N)=O)NC4(C(=O)Nc5c4ccc(Cl)c5C)[C@@H]3C2=O)cc1` (stereo partly drawn) displayed a z-score of -0.21.
In the case of `CCOC(=O)c1c(-n2cccc2)sc2c1CCCC2=O`, the z-score is -0.189.
For `COc1ccc(C(=O)Cc2cc(OC)c(OC)cc2[N+](=O)[O-])c(OC)c1`, the z-score was -0.225.
The value for `COc1cc(NC(C(=O)Nc2cccc(C(C)=O)c2)c2ccccc2)cc(OC)c1OC` (stereo not drawn) was 0.756; that for `CC(C)(C)n1nnnc1C(c1cccnc1)N1CCN(C2CCCCC2)CC1` (stereo not drawn) was -0.342; that for `CC(=O)Nc1c(O)nc(SCC(=O)Nc2nnc(CC(C)C)s2)[nH]c1=O` was 0.707.
As to `COCCNC(=O)c1onc(CCl)c1C(=O)OC`, the z-score was -0.0292.
Regarding `CCOC(=O)C1=C(C)OC(N)=C(C#N)C1c1cc(Cl)c(OCC(N)=O)c(OC)c1` (stereo not drawn), the z-score is -0.0226.
The compound `CCNC(=S)NNC(=O)c1cc(-c2ccccc2C)nc2ccccc12` showed a z-score of -0.0901.
The same measure for `Cn1nc(C(=O)N2CCc3ccccc3C2)c2ccccc2c1=O`: 0.303; for `COc1ccc(S(=O)(=O)NCc2ccccn2)cc1`: -0.0108.
Consider `COc1ccccc1CNC(=O)C1CCN(S(=O)(=O)c2ccc3c(c2)OCCCO3)CC1`, for which the z-score is 0.126.
`O=C(NC1CCCC1)C(c1ccc(F)cc1)N(C(=O)Cc1cccs1)c1ccc2c(c1)OCCO2` (stereo not drawn) yielded a z-score of -0.106.
`COc1cccc(CNC(=O)C2CCN(S(=O)(=O)c3ccc4c(c3)CCC(=O)N4)CC2)c1` showed a z-score of -0.153.
Regarding `COc1ccc(C(C)=O)cc1CSCCC#N`, the z-score amounted to 0.06.
The compound `COc1cc(C(=O)N2CCC(NC(=O)C(Cc3ccc(C)cc3)NC(C)=O)CC2)cc(OC)c1OC` (stereo not drawn) came in with a z-score of 0.166.
For the compound `COC(=O)C1C(c2ccc(Cl)cc2)NC(c2ccc(Cl)cc2)C(C(=O)OC)S1(=O)=O` (stereo not drawn), the z-score is -0.0837.
The compound `CCOc1ccccc1NC(=O)C1Cc2ccccc2CN1S(C)(=O)=O` (stereo not drawn) returned a z-score of -1.31.
Regarding `COc1ccccc1CNC(=O)CCn1c(=O)oc2ccccc21`, the z-score was -0.208.
The compound `COC(=O)C1CCN(C(=O)C23CCC(C)(C(=O)O2)C3(C)C)CC1` (stereo not drawn) gave a z-score of 0.293.
As for `COC(=O)c1cc(NC(=O)c2nccnc2C(=O)O)cc(C(=O)OC)c1`, the z-score worked out at 1.91.
`COc1ccc(N2C(=O)C3CCCN3C2c2cccc(Br)c2)cc1` (stereo not drawn) yielded a z-score of 0.243.
The same measure for `CCCNC(=O)c1cc(C)no1`: -0.107; for `O=C(O)CNS(=O)(=O)c1cccc2nsnc12`: 0.0928.
The compound `CCn1c(/C=N/Nc2ccc(C(=O)O)cc2)nc2ccccc21` yielded a z-score of -0.629.
Take `Brc1ccc2c(c1)OCCOCCOCCOCCOCCO2`: the z-score was -0.299.
As to `COc1ccc(-c2cc(C(=O)N3CCOCC3)c3cc(C)ccc3n2)cc1`, the z-score is 0.148.
`O=C(N1CCOCC1)N1c2ccccc2Sc2ccccc21` had a z-score of -0.454.
In turn, `O=C(Cn1cnc2ccccc2c1=O)NCCC(=O)Nc1ccc2c(c1)OCCO2` gave a z-score of -0.00198.
In the case of `O=S(=O)(Nc1ccc(O)cc1)c1cccc2cccnc12`, the z-score is -0.332.
The value for `COc1cc(C)c(S(=O)(=O)n2ccc(C)n2)cc1C` was -0.144; that for `O=C(CSc1n[nH]c(-c2ccc(S(=O)(=O)NC3CCCCC3)cc2)n1)N1CCCC1` was -0.42.
`COc1cc(Cn2ccnc2)c(OC)cc1Cn1ccnc1` displayed a z-score of -0.198.
As for `Cc1ccoc1C(=O)Nc1cccc(Oc2ccccc2)c1`, the z-score was -1.42.
`O=C(c1ccc(COc2ccccc2Cl)o1)N1CCN(c2ccccc2)CC1`: the z-score is -0.0947.
Take `CCCCc1ccc(NS(=O)(=O)c2cccs2)cc1`: the z-score turned out to be 0.186.
In turn, `CCOc1cc(C(c2c(C)[nH][nH]c2=O)c2c(C)[nH][nH]c2=O)ccc1OC(=O)c1cccc([N+](=O)[O-])c1` yielded a z-score of 0.129.
`CC(=O)c1cc(F)c(N2CCN(C(=O)COc3ccccc3F)CC2)cc1C`: the z-score came to 0.44.
`COc1ccccc1-n1c(C)c2c(OC)cccc(=O)c2c1C` registered a z-score of -0.777.
Consider `Cn1cc(CCC(=O)NCc2ccc3c(c2)OCO3)c2ccccc21`, for which the z-score was active: 3.75.
Turning to `Cc1ccc(-c2ccc(/C=N/c3ncn[nH]3)o2)cc1Cl`, the z-score is -0.497.
On to `CCC(=O)OCCNc1cc(Sc2nc3ccccc3s2)c2nonc2c1[N+](=O)[O-]`, for which the z-score is -0.434.
The compound `O=C(/C=C/c1ccc2c(c1)OCO2)NCc1ccc(F)cc1` registered a z-score of -0.449.
Regarding `COc1ccc(OCC(=O)O/N=C(\N)c2ccc(OC)c(OC)c2)cc1`, the z-score is 0.0106.
On to `CC(Oc1ccccc1)C(=O)Nc1ccc(S(=O)(=O)NCC2CCCO2)cc1` (stereo not drawn), for which the z-score was -0.0181.
The same measure for `Cc1ccccc1NC(=O)Cc1c(O)c2ccccc2[nH]c1=O`: -0.121; for `CCc1ccccc1NC(=S)N(CCN(C)C)C(C)c1ccccn1` (stereo not drawn): 0.158.
As for `Cc1ccc(CN(c2ccc(C(=O)N3CCc4ccccc4C3)cc2)S(C)(=O)=O)cc1`, the z-score was -0.35.
`N#Cc1c(NC(=O)CSc2nnc(-c3ccco3)n2-c2ccccc2)sc2c1CCC2` yielded a z-score of -0.148.
In turn, `Clc1ccc(CSc2ncnc3nc[nH]c23)cc1` had a z-score of -0.0267.
As to `CCC(CC)C(=O)Nc1cccc(C(=O)N2CCCC2)c1`, the z-score was -1.16.
The value for `Cc1ccc(NC(=O)N2CCC(O)(c3cccnc3)CC2)cc1` was -0.16; that for `Cc1cc(=O)oc2cc(OCC3CC(c4ccccc4Cl)=NO3)ccc12` (stereo not drawn) was -0.31.
Regarding `CN1CCN(C(c2ccccc2)c2nnnn2Cc2ccccc2)CC1` (stereo not drawn), the z-score was determined as 0.132.
The same measure for `COC(=O)Cn1c(=NC(=O)CN2C(=O)CCC2=O)sc2cc(S(N)(=O)=O)ccc21`: -0.289; for `CCOC(=O)C1=C(C)NC(=O)C(C#N)C1c1ccncc1` (stereo not drawn): -0.0805; for `COc1cc(C2NC(=O)N(C)C3=C2C(=O)CCC3)cc(OC)c1OC` (stereo not drawn): -0.583.
The same measure for `CCn1c(CNC(=O)c2ccco2)nnc1SCC(=O)Nc1ccc(Br)cc1F`: 1.31; for `COc1ccc(C(=O)Cc2nnc(C)s2)c(OC)c1`: 0.109; for `O=C(CN1CCN(c2ccccn2)CC1)NC1CCCCC1`: 0.13.
Regarding `Cn1nc(-c2ccccc2)c(-c2nc(-c3ccccc3Cl)no2)c1Cl`, the z-score is 0.0797.
Compound `COc1ccc(C)cc1NC(=O)Nc1ccc(Br)cn1` gave a z-score of 0.233.
Compound `CCOc1ccc(/C=C2\C(=O)c3ccccc3OC2c2ccccc2)cc1` (stereo not drawn) yielded a z-score of 0.144.
Regarding `C/C(N)=C(/C#N)C(=O)CSc1nnnn1-c1ccccc1`, the z-score is -0.0649.
`Cc1ccc(Cl)cc1N1CCN(CC(=O)Nc2ccc(CN3CCCCC3)cc2)CC1` came in with a z-score of 0.558.
Regarding `CC(C)[C@H](N)c1nnc(SCC(=O)c2ccc(Cl)cc2)o1`, the z-score was determined as 0.307.
Compound `CCOC(=O)CN(C(=O)Cn1nnc2ccccc21)C(C(=O)NCCOC)c1ccccc1C` (stereo not drawn) yielded a z-score of -0.3.
For `Cc1ccccc1OCCNc1cc(N2CCN(CCO)CC2)ccc1[N+](=O)[O-]`, the z-score was -0.092.
`CC(C)OC(=O)NC(C)(C)COC(=O)Nc1cccc(Cl)c1` returned a z-score of -0.698.
The same measure for `Cc1ccc(C2c3sc(=O)[nH]c3SC3C4CC(C5C(=O)N(C(C)C(=O)O)C(=O)C45)C23)cc1` (stereo not drawn): -0.0374.
The value for `CCOc1cc(C(=O)O)cc(Cl)c1OC` was -0.0582.
`Cc1ccc2nc3nc(NCC4CCCO4)c(C(=O)NC4CCCC4)cc3c(=O)n2c1` (stereo not drawn): the z-score is -0.396.
Take `Cc1cc(SCCOc2ccc(Br)cc2)nc(N)n1`: the z-score was 0.361.
The same measure for `CCCc1nn(-c2cc(Cl)ccc2OC)c2c1C(=O)CC(C)(C)C2`: -1.14; for `CCSc1nnc(NC(=O)CSc2nc3c(c(=O)n2C)SC(C)C3)s1` (stereo not drawn): -2.02; for `C/C(=C\C(=O)c1ccc(Br)cc1)NCc1ccc(C)cc1`: -0.364.
`Cc1cc(C(=O)COC(=O)c2ccc[nH]c2=O)c(C)n1-c1ccc(Br)cc1` yielded a z-score of -0.0786.
On to `COc1ccc(O)c(C(=O)c2cc(C#N)c(=O)n(-c3c(C)n(C)n(-c4ccccc4)c3=O)c2)c1`, for which the z-score was -0.346.
Turning to `COC(=O)c1c(NC(=O)c2ccc(S(=O)(=O)N3CCOCC3)cc2)sc2c1CCN(C)C2`, the z-score was -0.223.
For the compound `COCCNC(=O)CNC(=S)N(Cc1ccccc1)Cc1cccnc1`, the z-score was 0.192.
`O=C(O)c1cc(-c2ccncc2)nc2ccc(F)cc12` came in with a z-score of -0.321.
Consider `CCn1c(-c2nonc2NC(=O)c2ccccc2)nc2ccccc21`, for which the z-score is -0.103.
As to `CC(C)CCNC(=O)CN(C(=O)Cn1nnc(-c2ccccc2F)n1)c1cccc2c1CCCC2`, the z-score was -0.335.
`COc1ccc(-c2csc(-c3cc4ccccc4oc3=N)n2)cc1` registered a z-score of -0.00953.
In the case of `CCCCn1c(=NC(=O)c2cccnc2)c(C(=O)OCC)cc2c(=O)n3ccccc3nc21`, the z-score was -0.521.
The value for `Cc1nn(CC(=O)Nc2ccc(Cl)cn2)c(C)c1[N+](=O)[O-]` was 0.145.
The same measure for `Cc1ccc(OCC(=O)NNC(=O)c2cc3ccccc3o2)cc1C`: 1.04; for `Cc1ccc(S(=O)(=O)N2CC(=NO)C2)cc1`: 0.818; for `COc1cccc2cc(-c3nnc(SCC(=O)NCc4ccccc4)n3C)oc12`: -0.275.
Regarding `O=S(=O)(c1ccc(Cl)cc1)N1CCC(O)(c2cccnc2)CC1`, the z-score is -1.28.
Turning to `CCOCCCNC(=O)C1CCN(S(=O)(=O)CC)CC1`, the z-score came out at 0.957.
The value for `COc1ccccc1CC(NC(C)=O)C(=O)NC1CCN(c2nnnn2-c2ccccc2)CC1` (stereo not drawn) was -0.549; that for `O=C1NCC(COCC2CC=CCC2)O1` (stereo not drawn) was -0.33.
Turning to `CCCOc1ccc(N2C(=O)CC(S/C(N)=N/N=C(\C)c3cccs3)C2=O)cc1` (stereo not drawn), the z-score is -0.321.
On to `Cc1ccc(S(=O)(=O)N(CC(=O)N/N=C/c2cccc(Cl)c2)c2cccc3cccnc23)cc1`, for which the z-score is -0.51.
As for `COc1ccc(CNc2nc(-c3cccnc3)nn2C(=O)c2ccco2)cc1`, the z-score is active: 9.48.
